From PubChem BioAssay AID1347073 (National Center for Advancing Translational Sciences (NCATS), 2019)
Among all 45,000 compounds or so, about 200 (0.44%) were called active. About 7% were inconclusive and are not listed. Calls come from the whole dose curve; as a rule, active = well fitted activation curve with a large enough effect; inconclusive = small, poorly fitted or top-dose-only effect; inactive = no such curve, though single readings can be large or run the other way. This is one part of the list.

test: qHTS of TDP-43 Inhibitors: NCGC Sytravon Library Screen; conditions: yeast TDP-43 toxicity rescue, BacTiter-Glo growth, 24 h; at 46.1 µM (top of the series); note: 0% is about no effect; nearly all actives have a fitted effect of over 55% in size
Outline: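 TDP-43-expressing yeast, pregrown in raffinose, seeded at OD600 0.02 in galactose medium with compound for 24 hr at 30 deg C. Growth read by BacTiter-Glo luminescence, so rescue of toxicity appears as activation.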

| SMILES | growth rescue (activation) |
| --- | --- |
| O=c1[nH]c(O)c(/C=C2/C=CC(c3cc(Cl)ccc3Cl)=N2)c(=O)[nH]1 | inactive: 6.07% |
| CCOC(=O)N(c1ccccc1)P1(=S)OCCO1 | inactive: 4.58% |
| O=C1/C(=C/c2ccc3c(c2)OCO3)N2CCC1CC2 | inactive: -6.53% |
| O=C(O)C1C2CC3CC(C2)CC1(n1ncc(N2CCC4(CC2)OCCO4)c(Cl)c1=O)C3 (stereo unspecified) | inactive: 13.7% |
| O=S(=O)(c1ccccc1)N1CC1c1ccccc1 (stereo unspecified) | inactive: -4.45% |
| Cc1ccc(-n2c(O)c(C=NCCCn3ccnc3)c(=O)[nH]c2=O)cc1 | inactive: -0.837% |
| CN1CCN(c2nc(Cl)ncc2F)CC1 | inactive: 11.1% |
| Cc1ccccc1-n1c(O)c(/C=N/N2CCOCC2)c(=O)[nH]c1=S | inactive: 5.81% |
| O=C(NCCN1CCOCC1)c1ccc(Cl)nc1 | inactive: -6.56% |
| Cc1ccccc1-n1c(O)c(/C=N/NC(=O)c2ccncc2)c(=O)[nH]c1=O | inactive: -13.6% |
| CCC(=NCCC1=CCCCC1)c1c(O)[nH]c(=O)[nH]c1=O | inactive: 10.6% |
| COC(=O)C(O)(c1ccc(NC(=O)NC2CCCCC2)cc1)C(F)(F)F (stereo unspecified) | inactive: 6.2% |
| Cc1ccc(NC(=O)Cn2cc(C(=O)c3ccccc3)c3ccccc32)cc1 | inactive: 4.25% |
| Cn1c(O)c(/C=N/N2CCCCC2)c(=O)[nH]c1=O | inactive: -7.24% |
| CCn1cc(CN2CCCC(C(=O)c3cccc(OC)c3)C2)c(C)n1 (stereo unspecified) | inactive: 5.91% |
| CN1C(=O)N(C)C(=O)C2(Cc3cc([N+](=O)[O-])ccc3N(C)C2c2ccccc2)C1=O (stereo unspecified) | inactive: 2.01% |
| CCOc1cc2c(cc1OCC)-n1cccc1C(c1ccc(C(C)C)cc1)NC2 (stereo unspecified) | inactive: 12% |
| CCOc1ccccc1-n1c(O)c(C=NCCCN(CC)CC)c(=O)[nH]c1=O | inactive: 29.5% |
| Cc1cccc(N=Nc2ccc(N(C)C)cc2)c1 | inactive: 13.1% |
| O=c1c2ccccc2nc(/C=C/c2ccc3c(c2)OCO3)n1-c1cccc(O)c1 | inactive: 13.9% |
| Cc1ccc(C)c(NC2=NCCCS2)c1 | inactive: -16.1% |
| CC1(C)CSC(=NCc2ccccc2)N1 | inactive: 9.65% |
| Cc1ccc(OCCn2cccc2/C=C2/C(=O)NC(=O)N(Cc3ccco3)C2=O)cc1 | inactive: 2.34% |

| SMILES | growth rescue (activation) |
| --- | --- |
| Fc1ccc(C2=CCN(C(c3ccc(Cl)cc3)c3nnnn3Cc3ccccc3)CC2)cc1 (stereo unspecified) | inactive: 22.1% |
| COC(=O)Cn1cc(/C=C2\C(=O)NC(=O)N(c3ccc(OC)cc3)C2=O)c2ccccc21 | inactive: -36.7% |
| CCCCN=C[C@]12CCC(O)CC1(O)CCC1[C@@H]2CC[C@]2(C)[C@H](C3C=CC(=O)O3)CCC12O (stereo partly specified) | inactive: -21.2% |
| CN(C)/C=C/C(=O)C(Cl)(Cl)Cl | inactive: 17.7% |
| C[C@]12CCC3C(CC[C@H]4C[C@@H](O)CC[C@]34C)C1C[C@@H](O)[C@@H]2O (stereo partly specified) | inactive: 12.4% |
| Cc1c(C=O)c2ccccc2n1Cc1ccc([N+](=O)[O-])cc1 | inactive: 23.8% |
| C[C@]12C=CC(=O)C=C1CC[C@@H]1C2CC[C@]2(C)OC(=O)CCC12 (stereo partly specified) | inactive: 2.24% |
| O=c1[nH]c(=S)n(C2CC2)c(O)c1C=Nc1ccc2c(c1)OCO2 | inactive: 1.29% |
| CCN1C(=O)NC(=O)/C(=C/c2cc(C)n(-c3sc(C)c(C)c3C#N)c2C)C1=O | inactive: -14.4% |
| CC(=O)[C@@]1(O)CCC2C3CC=C4C[C@@H](O)CC[C@]4(C)C3CC[C@@]21C (stereo partly specified) | inactive: 10.1% |
| O=C(Nc1ccc(F)cc1F)c1cccn(Cc2ccccc2)c1=O | inactive: 15.5% |
| CCN(CC)S(=O)(=O)c1ccc(N=Cc2c(O)n(-c3ccccc3)c(=O)[nH]c2=O)cc1 | inactive: -34% |
| Nc1c2c(nc3sc4c(c13)CCCC4)CCCCC2 | inactive: -1.94% |
| Cc1c(N=Cc2c(O)n(CCc3ccccc3)c(=O)[nH]c2=O)c(=O)n(-c2ccccc2)n1C | inactive: 10.9% |
| O=C1CC(=O)N(Cc2ccccc2)C(=S)N1 | inactive: 21.3% |
| Cc1cccc(CNCCc2c[nH]c3ccccc23)c1 | inactive: 2.56% |
| COc1cc(OC)c(OC)cc1/C=C1/C(=O)NC(=O)N(Cc2ccccc2)C1=O | inactive: -6.89% |
| COc1ccc(Cl)cc1C(=O)C1CCCN(CCO)C1 (stereo unspecified) | inactive: 6.09% |
| CC1=C2C(=O)C3C(CC=C4CC(OC5OC(O)C(O)C(O)C5CO)CCC43C)C2CCC12OC1CC(C)CNC1C2C (stereo unspecified) | inactive: -2.4% |
| CCN(CC)C(=O)c1ccc(NC(=O)CNC(C)c2cccc3ccccc23)cc1 (stereo unspecified) | inactive: -4.24% |
| c1ccc2c(CCNC3CCCCC3)c[nH]c2c1 | inactive: 11.3% |
| C[C@]12CC[C@H](O)CC1=CC(=O)C1C2CC[C@]2(C)C(=O)CCC12 (stereo partly specified) | inactive: 20.6% |
| C[C@]12CC[C@H](O)CC1=CCC1C2CC[C@@]2(C)C1C[C@@H](O)[C@@H]2O (stereo partly specified) | inactive: 7.13% |
